Measurements: PubChem BioAssay AID1347073 (National Center for Advancing Translational Sciences (NCATS), 2019)
Screen size: about 45,000 compounds; about 200 (0.44%) were called active. About 7% were inconclusive and are not listed. Calls come from the whole dose curve; as a rule, active = well fitted activation curve with a large enough effect; inconclusive = small, poorly fitted or top-dose-only effect; inactive = no such curve, though single readings can be large or run the other way. The list shows a part of the results.

Experiment: qHTS of TDP-43 Inhibitors: NCGC Sytravon Library Screen; note: 0% is about no effect; nearly all actives have a fitted effect of over 55% in size
Details: yeast TDP-43 toxicity rescue, BacTiter-Glo growth, 24 h; series mostly up to 46.1 µM; growth rescue (activation): at the top concentration
How it was run: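 TDP-43-expressing yeast, pregrown in raffinose, seeded at OD600 0.02 in galactose medium with compound for 24 hr at 30 deg C. Growth read by BacTiter-Glo luminescence, so rescue of toxicity appears as activation.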

**Q.** With `CN(Cc1ccc(C(F)(F)F)cc1)C(=O)C1CCC(=O)N(C2CC2)C1` (configuration not stated) as the compound, how does the “growth rescue (activation)” value read?
**A.** inactive: 13.2%

**Q.** For `O=C(CSc1nnc(-c2ccccc2O)o1)N1CCOCC1`, which “growth rescue (activation)” value is on record?
**A.** inactive: -8.22%

**Q.** Which “growth rescue (activation)” value does the source give for `COc1cc(OC)cc(N(C(=O)CNC(=O)c2cccs2)C(C(=O)NCC2CCCO2)c2ccc(OC)c(OC)c2)c1` (configuration not stated) here?
**A.** inactive: 10.1%

**Q.** With `O=C(CN1C(=O)NC2(CCCc3ccccc32)C1=O)NCCc1ccc(F)cc1` (configuration not stated) as the compound, how does the “growth rescue (activation)” value read?
**A.** inactive: -2.74%

**Q.** Which “growth rescue (activation)” value does the source give for `COC(=O)C1=C(N)Oc2cc(C)n(CCCn3ccnc3)c(=O)c2C1c1ccc(Cl)cc1` (configuration not stated) here?
**A.** inactive: -10.9%

**Q.** Which “growth rescue (activation)” value does the source give for `CC1(C(=O)NC2CCc3ccccc32)CCN1CCc1ccccc1` (configuration not stated) here?
**A.** inactive: -5.76%

**Q.** For `CCOC(=O)C(Cc1ccccc1)C(=O)Nc1cccc(C)c1` (configuration not stated), which “growth rescue (activation)” value is on record?
**A.** inactive: -9.1%

**Q.** Which “growth rescue (activation)” value does the source give for `O=C(CNC(=O)c1ccco1)OCc1ccccc1F` here?
**A.** inactive: -1.05%

**Q.** Which “growth rescue (activation)” value does the source give for `N#Cc1nc(COc2ccc(Br)cc2)oc1NCCCn1ccnc1` here?
**A.** inactive: 14%

**Q.** Which “growth rescue (activation)” value does the source give for `Cc1cc(C)cc(OCC(=O)N(Cc2ccc(C)o2)C2CCS(=O)(=O)C2)c1` (configuration not stated) here?
**A.** inactive: 3.3%

**Q.** Which “growth rescue (activation)” value does the source give for `O=C(O)CNC(=O)/C(=C\c1ccc2c(c1)OCO2)NC(=O)c1ccc(Br)cc1` here?
**A.** inactive: -2.28%

**Q.** With `O=c1cc(-c2ccc([N+](=O)[O-])cc2)c2cc3c(cc2[nH]1)OCCO3` as the compound, how does the “growth rescue (activation)” value read?
**A.** inactive: -18.3%

**Q.** Which “growth rescue (activation)” value does the source give for `CCN(CC)S(=O)(=O)c1cccc(NC(=O)CCSc2ccc(Cl)cc2)c1` here?
**A.** inactive: 15.7%

**Q.** For `CC1(C(=O)NS(=O)(=O)c2ccc(C#N)cc2)CCN1C(=O)CCC1CCCC1` (configuration not stated), which “growth rescue (activation)” value is on record?
**A.** inactive: 2.94%

**Q.** For `N#Cc1c(SC(C(=O)O)c2ccccc2)nc2c(c1-c1cccs1)CCCC2` (configuration not stated), which “growth rescue (activation)” value is on record?
**A.** inactive: 9.12%

**Q.** Which “growth rescue (activation)” value does the source give for `Cc1ccc(S(=O)(=O)Nc2ccc(Cl)cn2)cc1C` here?
**A.** inactive: 3.6%

**Q.** Which “growth rescue (activation)” value does the source give for `CCCNC(=O)COC(=O)c1cc2c(=O)n3ccccc3nc2s1` here?
**A.** inactive: 13.7%

**Q.** For `COc1ccc([N+](=O)[O-])cc1NC(=O)C(C)Sc1nc(C)c(C)c(C)n1` (configuration not stated), which “growth rescue (activation)” value is on record?
**A.** inactive: 5.6%

**Q.** With `CC(OC(=O)c1ccc(Cl)cc1O)C(=O)NCCC1=CCCCC1` (configuration not stated) as the compound, how does the “growth rescue (activation)” value read?
**A.** inactive: -10.8%

**Q.** For `COc1cc(/C=N/NC(=O)c2cc[n+]([O-])cc2)ccc1O`, which “growth rescue (activation)” value is on record?
**A.** inactive: -6.25%

**Q.** With `CC(OC(=O)c1cccs1)C(=O)NC1CC1` (configuration not stated) as the compound, how does the “growth rescue (activation)” value read?
**A.** inactive: 5.95%

**Q.** Which “growth rescue (activation)” value does the source give for `CC(=O)Oc1ccc(C(=O)Nc2cccc(NC(=O)c3ccco3)c2)cc1` here?
**A.** inactive: 14.1%

**Q.** For `O=C(N/N=C/c1ccccc1[N+](=O)[O-])c1ccc(CN2CCOCC2)cc1`, which “growth rescue (activation)” value is on record?
**A.** inactive: 8.93%

**Q.** With `COc1cc(/C=C2\CCC(C3CCCC3)C2=O)cc(OC)c1OC` (configuration not stated) as the compound, how does the “growth rescue (activation)” value read?
**A.** inactive: 3.36%

**Q.** Which “growth rescue (activation)” value does the source give for `CCc1ccc(NC(=O)C/C(C)=N/NC(=O)COc2ccccc2C)cc1` here?
**A.** inactive: 4.99%

**Q.** Which “growth rescue (activation)” value does the source give for `CCCC(C(=O)NC(C)(C)C)N(CCN1CCOCC1)C(=O)CNS(=O)(=O)c1ccccc1` (configuration not stated) here?
**A.** inactive: 12.6%

**Q.** With `CC(=O)OCC(=O)N1N=C(c2ccc3ccccc3c2)CC1c1ccccc1` (configuration not stated) as the compound, how does the “growth rescue (activation)” value read?
**A.** inactive: 12.8%

**Q.** For `CCN(CC)S(=O)(=O)c1cccc(NC(=O)/C=C/c2cccc([N+](=O)[O-])c2)c1`, which “growth rescue (activation)” value is on record?
**A.** inactive: 5.03%

**Q.** For `CC(=O)Nc1ccc(S(=O)(=O)N2CCN(S(=O)(=O)N3CCOCC3)CC2)cc1`, which “growth rescue (activation)” value is on record?
**A.** inactive: 6.31%

**Q.** With `CC1=C(C(=O)OC2CCCC2)C(c2coc3ccc(C)cc3c2=O)C2=C(CCCC2=O)N1` (configuration not stated) as the compound, how does the “growth rescue (activation)” value read?
**A.** inactive: -2.82%

**Q.** For `CCN(CC)S(=O)(=O)c1ccc(N2CCOCC2)c(NC(=O)c2ccccc2F)c1`, which “growth rescue (activation)” value is on record?
**A.** inactive: 8.69%

**Q.** Which “growth rescue (activation)” value does the source give for `CCn1c2ccccc2c2cc(CN3CCN(Cc4ccccc4C)CC3)ccc21` here?
**A.** inactive: 11.4%

**Q.** Which “growth rescue (activation)” value does the source give for `O=C(OCc1cncs1)c1cccs1` here?
**A.** inactive: 0.489%

**Q.** Which “growth rescue (activation)” value does the source give for `CC1CCN(CCCCOc2ccccc2F)CC1` here?
**A.** inactive: -8.12%

**Q.** Which “growth rescue (activation)” value does the source give for `CN1N=C(C(=O)N=c2sc3ccccc3n2C)CCC1=O` here?
**A.** inactive: -11.7%

**Q.** Which “growth rescue (activation)” value does the source give for `CNS(=O)(=O)c1cccc(C(=O)OCC(=O)/C=C2/N(C)c3ccccc3C2(C)C)c1` here?
**A.** inactive: -16.3%

**Q.** With `CN(C)/C=C/C(=O)c1ccc(Oc2ccccc2)cc1` as the compound, how does the “growth rescue (activation)” value read?
**A.** inactive: -94.6%

**Q.** For `O=C1c2oc3ccccc3c(=O)c2C(c2cccc(Cl)c2)N1c1ccccn1` (configuration not stated), which “growth rescue (activation)” value is on record?
**A.** inactive: 8.42%

**Q.** For `O=C(Nc1ccc(Br)cc1)c1cccc(N2C(=O)C3C4CCC(C4)C3C2=O)c1` (configuration not stated), which “growth rescue (activation)” value is on record?
**A.** inactive: 6.47%

**Q.** For `CCC(=O)N(CCC(Cc1ccccc1)c1ccc2c(c1)OCO2)Cc1ccccc1F` (configuration not stated), which “growth rescue (activation)” value is on record?
**A.** inactive: 18.7%

**Q.** Which “growth rescue (activation)” value does the source give for `COc1ccc2[nH]c3c(=O)n(Cc4ccc(C(=O)N5CCC(C(N)=O)CC5)cc4)c(=S)[nH]c3c2c1` here?
**A.** inactive: -1.39%

**Q.** For `CCN(CC)S(=O)(=O)c1ccc(N(C)C)c(NC(=O)CC(NC(C)=O)c2ccccc2)c1` (configuration not stated), which “growth rescue (activation)” value is on record?
**A.** inactive: -12.9%

**Q.** Which “growth rescue (activation)” value does the source give for `CCc1nnc(SCc2cn3c(C)cc(C)nc3n2)n1N` here?
**A.** inactive: 25.8%

**Q.** For `COc1ccc(C(=O)Nc2ccc(NC(=O)Cc3ccccc3)cn2)cc1`, which “growth rescue (activation)” value is on record?
**A.** inactive: 9.59%

**Q.** With `COc1ccc(NC(=O)CCCN2C(=O)COc3ccc(C)cc32)cc1OC` as the compound, how does the “growth rescue (activation)” value read?
**A.** inactive: 0.708%

**Q.** Which “growth rescue (activation)” value does the source give for `COc1ccc(OCC(=O)N/N=C/c2ccncc2)cc1` here?
**A.** inactive: 8.45%

**Q.** Which “growth rescue (activation)” value does the source give for `CCC(=O)Nc1ccc(NC(=O)Cc2ccccc2)cn1` here?
**A.** inactive: 20.1%

**Q.** Which “growth rescue (activation)” value does the source give for `Cc1cc2oc(C(=O)Nc3ccc(S(=O)(=O)N4CCCC(C)C4)cc3)cc(=O)c2cc1Cl` (configuration not stated) here?
**A.** inactive: -6.14%

**Q.** For `Cc1ccc(C(=O)NCCCNC(=O)c2ccccc2F)cn1`, which “growth rescue (activation)” value is on record?
**A.** inactive: 0.158%

**Q.** Which “growth rescue (activation)” value does the source give for `CCOc1ccc(-c2cnc3cccnn23)cc1` here?
**A.** inactive: 22.2%

**Q.** Which “growth rescue (activation)” value does the source give for `Cc1ccc(N(CC(=O)NC2CCCCC2)C(=O)CNC(=O)c2ccco2)c(C)c1` here?
**A.** inactive: 4.59%

**Q.** Which “growth rescue (activation)” value does the source give for `CNC(=O)C1=C(C)Nc2nc3ccccc3n2C1c1ccc(F)cc1` (configuration not stated) here?
**A.** inactive: 1.8%
